Source: the supplement of paper PMC3334620
In all, about 33,000 sequences were measured (“E-score (-0.5 to 0.5)”: median about -0.016, highest 2% from about 0.32 on). This is one part of the list.

biological target: T1, Stp1 (UniProt B3LFK1); experiment: PBM E-score (8-mer binding enrichment) (E-score (-0.5 to 0.5)); higher = stronger / more preferred TF binding; most listed sequences are background and not binding sites; settings: protein concentration: 200 nM; construct: GST-full length
T1 sequence: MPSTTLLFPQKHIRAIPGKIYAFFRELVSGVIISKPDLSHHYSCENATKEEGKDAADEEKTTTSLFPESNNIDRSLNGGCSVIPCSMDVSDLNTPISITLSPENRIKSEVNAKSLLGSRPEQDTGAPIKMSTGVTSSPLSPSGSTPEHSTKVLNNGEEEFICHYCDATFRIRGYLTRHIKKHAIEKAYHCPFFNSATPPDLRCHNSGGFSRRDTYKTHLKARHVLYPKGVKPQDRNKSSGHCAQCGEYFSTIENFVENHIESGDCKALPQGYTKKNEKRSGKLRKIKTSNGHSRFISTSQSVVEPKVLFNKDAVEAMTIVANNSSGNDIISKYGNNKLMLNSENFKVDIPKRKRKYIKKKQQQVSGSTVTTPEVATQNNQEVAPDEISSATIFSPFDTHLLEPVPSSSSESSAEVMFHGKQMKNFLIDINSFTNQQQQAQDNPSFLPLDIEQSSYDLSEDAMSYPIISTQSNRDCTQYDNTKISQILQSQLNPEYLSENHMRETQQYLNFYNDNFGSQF
Outline: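 PURExpress in vitro transcription/translation supplied GST-tagged yeast transcription factors, either full-length or DNA-binding domain. Applied at about 100-200 nM to universal all-10-mer Agilent arrays double-stranded by primer extension, the bound protein was detected with fluorescent anti-GST. E-scores, modified Wilcoxon-Mann-Whitney statistics, were given by the Universal PBM Analysis Suite to ungapped eight-base words pooled with their reverse complements after masliner normalisation.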

Row | Sequence | PBM E-score
1 | ACTGCTTA | -0.11
2 | CACCATTA | 0.0175
3 | ACATACTA | 0.011
4 | CTCTAGAC | -0.202
5 | ATGAAAAG | -0.0104
6 | AGCCGCAT | 0.452
7 | CTAAAGAA | 0.112
8 | ACCGCGGG | 0.0822
9 | AACCACCA | -0.0463
10 | AACGCTTC | -0.0974
11 | CTACAGAA | 0.117
12 | CCTTTGTC | -0.0883
13 | ATCATCGC | 0.0579
14 | GAGCTCGA | -0.0351
15 | ATGCCCTC | 0.167
16 | AACGGCAC | 0.472
17 | CTCCGAAG | -0.198
18 | CAGAAATA | -0.0226
19 | GGGTTGAC | -0.116
20 | AAAAGGAG | -0.215
21 | GCATGCCC | -0.00699
22 | ATCCAGTA | -0.0403
23 | AGACGACG | -0.0138
24 | AATTTTTG | 0.191
25 | AATCGTGG | 0.0275

Row | Sequence | PBM E-score
26 | CCCTCACG | -0.0983
27 | GTGATTTA | 0.121
28 | TAGGCACA | 0.132
29 | CAGAGATC | -0.131
30 | TCCGGGAA | 0.0108
31 | CCCTTGTA | -0.178
32 | GCTCGCAC | 0.0108
33 | TGAGGACA | -0.0366
34 | AAGCACGG | 0.295
35 | AAGTCAAA | -0.0377
36 | CCCACAGG | -0.271
37 | CCGCTTAG | -0.0179
38 | AAACATTA | -0.0139
39 | CCTACAGC | -0.0585
40 | CGGCCGGA | -0.15
41 | TCTAACCA | 0.0771
42 | AACTAAAG | 0.0929
43 | AGGGAACA | -0.0555
44 | ACTGAGAT | -0.219
45 | TATCGAAA | 0.156
46 | CTTGTCGC | 0.166
47 | TACGCATA | 0.13
48 | CGAGCACC | -0.238
49 | ACGACGAT | 0.0785
50 | GTATCAAC | -0.00913

Row | Sequence | PBM E-score
51 | CAGGATTA | 0.103
52 | ATCAAGGG | 0.143
53 | AAATATGG | 0.0487
54 | CTTGGGCC | 0.0832
55 | CCCAAGAC | -0.246
56 | CTCTCGCA | -0.277
57 | AACTGAAA | 0.0772
58 | AGACCTTC | -0.195
59 | GCCCATCA | -0.14
60 | CATCTTCA | -0.16
61 | CAGAGATG | 0.0502
62 | CCTGACTC | -0.122
63 | TCAATTGA | 0.239
64 | GCAAGAAC | 0.16
65 | CCAGCGCG | 0.0151
66 | CATCGGTC | -0.198
67 | GCGATCCC | -0.172
68 | GCGCCCGC | 0.181
69 | AATTCCAC | -0.0125
70 | ACACTCCT | -0.13
71 | AATGATAA | 0.133
72 | TATACGAA | 0.0856
73 | GGCCAACC | -0.134
74 | GCGGTTGA | -0.0216
75 | GGATTAAA | 0.0606

Row | Sequence | PBM E-score
76 | ATTTAGTA | 0.191
77 | GGCCAGAC | -0.222
78 | ATCGACGC | 0.00148
79 | GCGATACC | -0.162
80 | AGAACTGA | 0.157
81 | CCTTAGCA | 0.0632
82 | ATGGGGCG | 0.264
83 | TCTGGCCA | -0.147
84 | GCGCAAAA | 0.227
85 | AAATGTGG | 0.14
86 | ACTGGCAA | -0.108
87 | ACCGTAAA | 0.0391
88 | AAACGTAT | 0.214
89 | AGGTCGAC | -0.286
90 | AGGCGGCC | 0.147
91 | AGACCACC | -0.245
92 | ACTTGCAC | -0.0792
93 | GGACCCCC | -0.45
94 | GAGCGCGC | 0.237
95 | AAGTTCAT | 0.00541
96 | CACGTTGC | 0.093
97 | AGGGAGTA | -0.31
98 | GCTAGTTA | 0.0852
99 | AAGGGTAG | -0.207
100 | CCTTCAAG | 0.0118

Row | Sequence | PBM E-score
101 | AGCACGAT | 0.118
102 | CATCCAAG | -0.181
103 | AGACCCCC | -0.393
104 | ATCTATTA | 0.0812
105 | ATGTATGG | -0.0194
106 | CCCCTGAA | -0.017
107 | AGCGCGGA | 0.0636
108 | CTTTGCCC | -0.0335
109 | ACGCACTA | -0.131
110 | CAGTCTGG | -0.218
111 | ATACGGGC | -0.0186
112 | ATACCGAA | 0.0551
113 | ATTCTATG | 0.194
114 | AGGATATG | 0.0335
115 | TGAACAAA | 0.267
116 | ACGAGCCC | -0.0928
117 | CAACTCAC | -0.0952
118 | GCAGAATA | 0.00751
119 | AGATTCCA | 0.14
120 | AGTACTAA | 0.0016
121 | AAGTTCCT | -0.117
122 | AGTCCGTC | -0.0184
123 | AAGACACG | 0.234
124 | CGTGGTTA | 0.0579
125 | CGAAAGCC | -0.0122

Row | Sequence | PBM E-score
126 | CCGCCTTA | 0.201
127 | ACAATGCA | 0.163
128 | CAGGTTGG | -0.19
129 | CCGCACGG | 0.448
130 | ATGTTCAA | 0.131
131 | GAGGTATA | -0.0508
132 | TATATGAA | 0.18
133 | ACTGTTGA | -0.0391
134 | AGTATCTG | -0.107
135 | ACGATGCA | 0.0353
136 | ATAGTAGA | -0.0811
137 | GAATACGC | -0.0347
138 | ACCGTCAA | 0.0774
139 | CGTTCAGC | 0.00756
140 | CCACCTCC | -0.338
141 | ACTTCCGA | -0.0873
142 | AACTTGGA | 0.0205
143 | AGGCCCAC | -0.232
144 | AAGCCGAC | -0.11
145 | GAACATAA | -0.0127
146 | CGTCATAG | -0.0609
147 | TCACCGCA | -0.0824
148 | CCAGCTGG | -0.154
149 | GGGATGAC | -0.275
150 | AGGGCGAC | 0.015

Row | Sequence | PBM E-score
151 | AACCGCGA | 0.174
152 | AGTAGTGC | 0.133
153 | AGCGCGTG | 0.0478
154 | GCGGAGAC | 0.00698
155 | ATGGCCGA | 0.0135
156 | GGCGGCAA | 0.286
157 | GCCTAAAC | -0.116
158 | CGGCCTGC | -0.125
159 | TCGGGTAA | -0.0421
160 | TGACACCA | -0.131
161 | ATTCCACG | -0.0103
162 | GCGAAGAA | 0.155
163 | GTGTCCTA | -0.0136
164 | GTGTCTGA | 0.0415
165 | CGGAAGCC | -0.0376
166 | GCAACATA | 0.147
167 | AGTGGCGA | 0.178
168 | ATGAGGTA | -0.146
169 | GACTAAGA | 0.00203
170 | AAGACGTA | -0.16
171 | AAGCGGAT | -0.0611
172 | CGGTTCAC | -0.216
